Like-named read-outs stand apart in the source and are kept apart here.
Key:
[1] = Solid oral delivery of PYY[3-36] in feed restricted rats (serum PYY radioimmunoassay); format: in vivo, Male Sprague Dawley rats; settings: 1 tablet per animal, PYY[3-36] 0.3 mg/kg
Procedure: An oral dosing tube was used.
Blood samples were collected serially from the tail artery, by cardiac puncture, or as in this case by retro-orbitally, typically at time=0, 15, 30, 60 and 90 minutes.

[2] = Liquid oral delivery of PYY[3-36] in rats (oral gavage, serum PYY[3-36] radioimmunoassay); settings: oral gavage solution, 1 ml/kg
Procedure: SNAC monosodium salt, solid was dissolved in water. The pH of this solution was close to pH 7.5, so no pH adjustments were done. […] The final pH of these solutions was 7.5.
The pH was then lowered to 7.7 by adding HCl (5N). […] The final pH of these solutions varied between 7.5 and 7.6.
Each delivery agent compound (as the free acid or monosodium salts) was dissolved in water. The pH was adjusted to approximately 7.5 by adding HCl (5N) and NaOH (5N) as needed. […] The final pH of these solutions was approximately 7.5.
The typical dosing and sampling protocols were as follows. Male Sprague-Dawley rats weighing between 240-320 g were fasted up to a maximum 24 hours before the experiments and administered ketamine (44 mg/kg) and thorazine (1.5 mg/kg) by intramuscular injection before the test article administration. Afterwards, the anesthetized animals were administered the test article by oral gavage. A dosing group of five animals was administered one of the dosing solutions. For oral gavage (PO), an 11 cm Rusch 8 French catheter was adapted to a 1 ml syringe with a pipette tip. The syringe was filled with dosing solution by drawing the solution through the catheter, which was then wiped dry. The catheter was placed down the esophagus leaving 1 cm of tubing past the incisors. The dosing solution was administered by pressing the syringe plunger.
Blood samples were collected serially from the tail artery, or by cardiac puncture, typically at time=0, 15, 30, 45, 60 and 90 minutes. […] Results from the animals in each group were averaged for each time point.

[3] = Rhesus monkeys, oral solid dose, PYY[3-36] 1 mg/tablet
Excerpt: Results from the animals in each group were averaged for each time point.

[4] = Delivery Agent 200 mg/kg, PYY[3-36] 0.3 mg/kg

O=C(O)CCCCCCCOc1ccc(O)cc1 [Delivery Agent 17, 8-(4-hydroxyphenoxy)octanoate]
Mean serum peak of PYY (pg/ml) ± SD ([1]; Delivery Agent 50 mg/kg, listed as 17): 581.62 ± 236.94 pg/mL

OCCN(CCO)CCCCCCCCOc1ccccc1O [Delivery Agent 15, 8-(2-Hydroxyphenoxy)octyl-diethanolamine]
Mean Peak Serum [PYY(3-36)] (pg/ml) ± SD [2, 4]: 705.106 ± 75.906 pg/mL

COc1ccc(O)c(C(=O)NCCCCCCCC(=O)O)c1 [Delivery Agent 11, 8-(2-hydroxy-5-methoxybenzoylatnino)octanoic acid]
Mean Peak Serum [PYY(3-36)] (pg/ml) ± SD [2, 4]: 871.484 ± 119.461 pg/mL
Mean serum peak of PYY (pg/ml) ± SD ([1]; Delivery Agent 100 mg/kg): 2330.63 ± 963.7 pg/mL

O=C(O)CCCCCCCNC(=O)c1ccccc1O [Delivery Agent 1, N-(8-[2-hydroxybenzoyl]-amino)caprylic acid]
Mean Peak Serum [PYY(3-36)] (pg/ml) ± SD ([2]; Delivery Agent 100 mg/kg, PYY[3-36] 0.1 mg/kg): 233.03 ± 127.5 pg/mL
Mean Peak Serum [PYY(3-36)] (pg/ml) ± SD ([2]; Delivery Agent 100 mg/kg, PYY[3-36] 0.5 mg/kg): 235.75 ± 181.7 pg/mL
Mean Peak Serum [PYY(3-36)] (pg/ml) ± SD ([2]; Delivery Agent 200 mg/kg, PYY[3-36] 0.1 mg/kg): 313.14 ± 151.8 pg/mL
Mean Peak Serum [PYY(3-36)] (pg/ml) ± SD ([2]; Delivery Agent 200 mg/kg, PYY[3-36] 0.5 mg/kg): 442.098 ± 78.4 pg/mL
Mean serum peak of PYY (pg/ml) ± SD ([3]; 1 tablet per animal, Delivery Agent 50 mg/tablet, per animal 50/1 mg): 969 ± 60.72 pg/mL
Mean serum peak of PYY (pg/ml) ± SD ([3]; 1 tablet per animal, Delivery Agent 100 mg/tablet, per animal 100/1 mg): 757.8 ± 441.02 pg/mL
Mean serum peak of PYY (pg/ml) ± SD ([3]; 2 tablet per animal, Delivery Agent 50 mg/tablet, per animal 100/2 mg): 1030.9 ± 76.88 pg/mL
Mean serum peak of PYY (pg/ml) ± SD ([1]; Delivery Agent 100 mg/kg): 830.24 ± 341.32 pg/mL

— patent publication US20050009748A1, “Compositions for delivering peptide YY and PYY agonists” (Emisphere Technologies, Inc., priority 2003, published 2005)
